This is one part of the list. At the low end of the ranking the order means little.
target: GST-SBP-SLBP (stem-loop binding protein) (UniProt Q14493); test: targeted RNA Bind-n-Seq; details: RBNS binding buffer: 25 mM Tris pH 7.5, 150 mM KCl, 3 mM MgCl2, 0.1% Tween, 0.5 mg/mL BSA, 1 mM DTT; 27 nM protein, 750 pM RNA pool; temperature not stated; high values mean tight binding;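 also: DESeq read counts versus GST-SBP nonspecific binding control pulldown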

**Q.** How did the binding signal (log2 fold change) turn out when “GGUCACGUCUCAAUCAACUCCUUAGAGGGGGGGAAAACCCCUUUACCCUCCCAAUCAACAGCUCGCAGUCAAG” was run?
**A.** The binding signal (log2 fold change) was -0.243.

**Q.** How did the binding signal (log2 fold change) turn out when “GGUCACGUCUCAAUCAACUCUUCCCCAGGAGUUUUCUCCUGCAUUUUCAACAGCUCGCAGUCAAG” was run?
**A.** Its binding signal (log2 fold change) is 0.121.

**Q.** For “GGUCACGUCUCAAUCAACUCUAUGUCCAGGGAAACCCCUGGUUUUCUCAACAGCUCGCAGUCAAG”, which binding signal (log2 fold change) is on record?
**A.** Its binding signal (log2 fold change) is 0.0996.

**Q.** Which binding signal (log2 fold change) does the source give for “GGUCACGUCUCAAUCAACUCAUGUCCAGGAGUUUCCUCCUGCUUAUUCAACAGCUCGCAGUCAAG” here?
**A.** The binding signal (log2 fold change) was 0.0646.

**Q.** “GGUCACGUCUCAAUCAACUCUUCCUCCAGGGAAAUCCCUGGUAUAUUCAACAGCUCGCAGUCAAG” was tested. Which binding signal (log2 fold change) did it give?
**A.** Its binding signal (log2 fold change) is 0.00444.

**Q.** For “GGUCACGUCUCAAUCAACUCUUCUCCCAGGGAAAACCCUGGUAUAUUCAACAGCUCGCAGUCAAG”, which binding signal (log2 fold change) is on record?
**A.** Its binding signal (log2 fold change) is -0.0345.

**Q.** With “GGUCACGUCUCAAUCAACUCUUUCCCCAGGGAAAUCCCUGGCAAACUCAACAGCUCGCAGUCAAG” as the sequence, how does the binding signal (log2 fold change) read?
**A.** Its binding signal (log2 fold change) is -0.131.

**Q.** Which binding signal (log2 fold change) does the source give for “GGUCACGUCUCAAUCAACUCAACUUCAGGAGUUUACUCCUGUAUAUUCAACAGCUCGCAGUCAAG” here?
**A.** Its binding signal (log2 fold change) is -0.147.

**Q.** “GGUCACGUCUCAAUCAACUCAUCCUCCAGGGAAAACCCUGGUUUAUUCAACAGCUCGCAGUCAAG” was tested. Which binding signal (log2 fold change) did it give?
**A.** The binding signal (log2 fold change) was 0.133.

**Q.** Which binding signal (log2 fold change) does the source give for “GGUCACGUCUCAAUCAACUCAUCGCCAGGAGUUUUCUCCUGCAAAUUCAACAGCUCGCAGUCAAG” here?
**A.** The binding signal (log2 fold change) was -0.0314.

**Q.** How did the binding signal (log2 fold change) turn out when “GGUCACGUCUCAAUCAACUCUUCAGAGGGGGGGAAAACCCCUUUACCCUCAUUUUCAACAGCUCGCAGUCAAG” was run?
**A.** The binding signal (log2 fold change) was 0.169.

**Q.** For “GGUCACGUCUCAAUCAACUCUAUCGAGGGGGGGAAAACCCCUUUACCCUCCAAUUCAACAGCUCGCAGUCAAG”, which binding signal (log2 fold change) is on record?
**A.** The binding signal (log2 fold change) was 0.0885.

**Q.** Which binding signal (log2 fold change) does the source give for “GGUCACGUCUCAAUCAACUCAAUUCCAGGAGUUUACUCCUGUUUUCUCAACAGCUCGCAGUCAAG” here?
**A.** Its binding signal (log2 fold change) is 0.11.

**Q.** Which binding signal (log2 fold change) does the source give for “GGUCACGUCUCAAUCAACUCUAUCGAGGGGGGGAAAACCCCUUUACCCUCACACUCAACAGCUCGCAGUCAAG” here?
**A.** The binding signal (log2 fold change) was 0.573.

**Q.** With “GGUCACGUCUCAAUCAACUCAUCCCCAGGAGUUUUCUCCUGCAAACUCAACAGCUCGCAGUCAAG” as the sequence, how does the binding signal (log2 fold change) read?
**A.** The binding signal (log2 fold change) was -0.235.

**Q.** Which binding signal (log2 fold change) does the source give for “GGUCACGUCUCAAUCAACUCAACUUCCAGGGAAAGCCCUGGCUAUUUCAACAGCUCGCAGUCAAG” here?
**A.** The binding signal (log2 fold change) was 0.217.

**Q.** For “GGUCACGUCUCAAUCAACUCAUCCCCAGGAGUUUUCUCCUGUAAACUCAACAGCUCGCAGUCAAG”, which binding signal (log2 fold change) is on record?
**A.** The binding signal (log2 fold change) was 0.123.

**Q.** Which binding signal (log2 fold change) does the source give for “GGUCACGUCUCAAUCAACUCAAUUUCAGGAGUUUACUCCUGCAUAUUCAACAGCUCGCAGUCAAG” here?
**A.** The binding signal (log2 fold change) was -0.00674.

**Q.** “GGUCACGUCUCAAUCAACUCAACGCCAGGAGUUUCCUCCUGCUAUUUCAACAGCUCGCAGUCAAG” was tested. Which binding signal (log2 fold change) did it give?
**A.** The binding signal (log2 fold change) was 0.0199.

**Q.** How did the binding signal (log2 fold change) turn out when “GGUCACGUCUCAAUCAACUCCAAAGAGGGGGGGAAAACCCCUUUGCCCUCCGUAUCAACAGCUCGCAGUCAAG” was run?
**A.** Its binding signal (log2 fold change) is -0.311.

**Q.** How did the binding signal (log2 fold change) turn out when “GGUCACGUCUCAAUCAACUCAAUUCCCAGGGAAAACCCUGGCAUAUUCAACAGCUCGCAGUCAAG” was run?
**A.** Its binding signal (log2 fold change) is 0.125.

**Q.** Which binding signal (log2 fold change) does the source give for “GGUCACGUCUCAAUCAACUCUUCCUCCAGGGAAAUCCCUGGCAUUUUCAACAGCUCGCAGUCAAG” here?
**A.** Its binding signal (log2 fold change) is 0.0961.

**Q.** Which binding signal (log2 fold change) does the source give for “GGUCACGUCUCAAUCAACUCUUUUUCAGGAGUUUACUCCUGUUUAUUCAACAGCUCGCAGUCAAG” here?
**A.** The binding signal (log2 fold change) was 0.00319.

**Q.** For “GGUCACGUCUCAAUCAACUCUAUCCCCAGGGAAAUCCCUGGCAAUCUCAACAGCUCGCAGUCAAG”, which binding signal (log2 fold change) is on record?
**A.** Its binding signal (log2 fold change) is 0.11.

**Q.** For “GGUCACGUCUCAAUCAACUCAUCUCCAGGAGUUUUCUCCUGCAUACUCAACAGCUCGCAGUCAAG”, which binding signal (log2 fold change) is on record?
**A.** Its binding signal (log2 fold change) is 0.147.

**Q.** For “GGUCACGUCUCAAUCAACUCUACUCCCAGGGAAACCCCUGGCUUUUUCAACAGCUCGCAGUCAAG”, which binding signal (log2 fold change) is on record?
**A.** The binding signal (log2 fold change) was -0.21.

**Q.** With “GGUCACGUCUCAAUCAACUCAACUCCAGGAGUUUGCUCCUGCAUUCUCAACAGCUCGCAGUCAAG” as the sequence, how does the binding signal (log2 fold change) read?
**A.** The binding signal (log2 fold change) was 0.13.

**Q.** Which binding signal (log2 fold change) does the source give for “GGUCACGUCUCAAUCAACUCAUUUUCCAGGGAAAACCCUGGCGUAUUCAACAGCUCGCAGUCAAG” here?
**A.** Its binding signal (log2 fold change) is -0.0201.

**Q.** With “GGUCACGUCUCAAUCAACUCUAGUCCCAGGGAAAUCCCUGGCUUUUUCAACAGCUCGCAGUCAAG” as the sequence, how does the binding signal (log2 fold change) read?
**A.** Its binding signal (log2 fold change) is 0.0712.

**Q.** How did the binding signal (log2 fold change) turn out when “GGUCACGUCUCAAUCAACUCCCUAGAGGGGGGGAAAACCCCUUUACCCUCAUUUUCAACAGCUCGCAGUCAAG” was run?
**A.** Its binding signal (log2 fold change) is 0.2.

**Q.** “GGUCACGUCUCAAUCAACUCUUCGCCCAGGGAAAACCCUGGUUUAUUCAACAGCUCGCAGUCAAG” was tested. Which binding signal (log2 fold change) did it give?
**A.** Its binding signal (log2 fold change) is -0.012.

**Q.** Which binding signal (log2 fold change) does the source give for “GGUCACGUCUCAAUCAACUCAUCCUCAGGAGUUUACUCCUGCUUAGUCAACAGCUCGCAGUCAAG” here?
**A.** Its binding signal (log2 fold change) is 0.139.

**Q.** “GGUCACGUCUCAAUCAACUCACUAGAGGGGGGGAAAACCCCUUUACCCUCGUCCUCAACAGCUCGCAGUCAAG” was tested. Which binding signal (log2 fold change) did it give?
**A.** The binding signal (log2 fold change) was -0.285.

**Q.** For “GGUCACGUCUCAAUCAACUCUUUUUCAGGAGUUUCCUCCUGCAUAUUCAACAGCUCGCAGUCAAG”, which binding signal (log2 fold change) is on record?
**A.** The binding signal (log2 fold change) was -0.0124.

**Q.** For “GGUCACGUCUCAAUCAACUCAUUUUCAGGAGUUUUCUCCUGCUUUCUCAACAGCUCGCAGUCAAG”, which binding signal (log2 fold change) is on record?
**A.** The binding signal (log2 fold change) was 0.107.

**Q.** Which binding signal (log2 fold change) does the source give for “GGUCACGUCUCAAUCAACUCUACGGCAGGAGUUUACUCCUGGAAUCUCAACAGCUCGCAGUCAAG” here?
**A.** The binding signal (log2 fold change) was 0.318.

**Q.** Which binding signal (log2 fold change) does the source give for “GGUCACGUCUCAAUCAACUCAUCUCCCAGGGAAAUCCCUGGUAUACUCAACAGCUCGCAGUCAAG” here?
**A.** Its binding signal (log2 fold change) is 0.192.

**Q.** For “GGUCACGUCUCAAUCAACUCAUCUUCCAGGGAAAGCCCUGGCAUUCUCAACAGCUCGCAGUCAAG”, which binding signal (log2 fold change) is on record?
**A.** The binding signal (log2 fold change) was 0.0623.

**Q.** Which binding signal (log2 fold change) does the source give for “GGUCACGUCUCAAUCAACUCAUUCUCAGGAGUUUGCUCCUGCAUAUUCAACAGCUCGCAGUCAAG” here?
**A.** The binding signal (log2 fold change) was -0.067.

**Q.** Which binding signal (log2 fold change) does the source give for “GGUCACGUCUCAAUCAACUCUACUUCAGGAGUUUCCUCCUGUAAUCUCAACAGCUCGCAGUCAAG” here?
**A.** Its binding signal (log2 fold change) is -0.021.

**Q.** With “GGUCACGUCUCAAUCAACUCUAUCCCAGGAGUUUCCUCCUGCUAUUUCAACAGCUCGCAGUCAAG” as the sequence, how does the binding signal (log2 fold change) read?
**A.** The binding signal (log2 fold change) was 0.0632.

**Q.** With “GGUCACGUCUCAAUCAACUCAACUUCCAGGGAAACCCCUGGUUUUCUCAACAGCUCGCAGUCAAG” as the sequence, how does the binding signal (log2 fold change) read?
**A.** Its binding signal (log2 fold change) is -0.572.

**Q.** For “GGUCACGUCUCAAUCAACUCUUCGUCCAGGGAAACCCCUGGUUAAUUCAACAGCUCGCAGUCAAG”, which binding signal (log2 fold change) is on record?
**A.** The binding signal (log2 fold change) was -0.0876.

**Q.** For “GGUCACGUCUCAAUCAACUCUUUUCCAGGAGUUUUCUCCUGUUUAUUCAACAGCUCGCAGUCAAG”, which binding signal (log2 fold change) is on record?
**A.** The binding signal (log2 fold change) was -0.197.

**Q.** How did the binding signal (log2 fold change) turn out when “GGUCACGUCUCAAUCAACUCCCUAGAGGGGGGGAAAACCCCUUUGCCCUCAAUUUCAACAGCUCGCAGUCAAG” was run?
**A.** The binding signal (log2 fold change) was 0.164.

**Q.** For “GGUCACGUCUCAAUCAACUCAUCCCCCAGGGAAAGCCCUGGUUAACUCAACAGCUCGCAGUCAAG”, which binding signal (log2 fold change) is on record?
**A.** The binding signal (log2 fold change) was -0.165.

**Q.** With “GGUCACGUCUCAAUCAACUCUUUCUCCAGGGAAAACCCUGGUUUUUUCAACAGCUCGCAGUCAAG” as the sequence, how does the binding signal (log2 fold change) read?
**A.** Its binding signal (log2 fold change) is -0.186.

**Q.** How did the binding signal (log2 fold change) turn out when “GGUCACGUCUCAAUCAACUCAUCGUCAGGAGUUUGCUCCUGUAUUCUCAACAGCUCGCAGUCAAG” was run?
**A.** Its binding signal (log2 fold change) is -0.12.

Reference: PMC5892938
